In article PMC9668993, “CBP-HSF2 structural and functional interplay in Rubinstein-Taybi neurodevelopmental disorder” (Nature Communications, 2022):
No constants are given. Whether binding was seen depends on the method and setting. For some of these results: Binding seen in cells or lysates may run through a third protein. Some binding calls cover weakened binding; strength is not graded here. Blank lines part the entries; values can stand above or below the substance they belong to.

The chains behind the UniProt entries cited, without tags or fusion partners. Where a name states a change or a piece, a line headed by the entry shows the natural chain unless it says otherwise.
UniProt Q03933: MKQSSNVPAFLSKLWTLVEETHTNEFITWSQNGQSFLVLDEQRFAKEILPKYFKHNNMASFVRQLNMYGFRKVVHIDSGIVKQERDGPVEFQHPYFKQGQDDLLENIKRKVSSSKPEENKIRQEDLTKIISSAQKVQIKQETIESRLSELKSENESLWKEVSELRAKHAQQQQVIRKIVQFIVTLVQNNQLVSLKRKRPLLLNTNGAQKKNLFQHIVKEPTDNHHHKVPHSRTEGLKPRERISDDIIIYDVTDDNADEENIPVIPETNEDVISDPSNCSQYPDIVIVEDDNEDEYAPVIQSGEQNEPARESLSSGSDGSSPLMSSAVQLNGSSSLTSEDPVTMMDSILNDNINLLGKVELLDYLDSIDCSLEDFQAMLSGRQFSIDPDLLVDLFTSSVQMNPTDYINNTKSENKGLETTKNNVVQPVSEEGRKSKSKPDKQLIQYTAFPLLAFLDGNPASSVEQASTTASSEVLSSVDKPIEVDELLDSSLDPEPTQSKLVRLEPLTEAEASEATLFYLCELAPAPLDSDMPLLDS
UniProt P38533: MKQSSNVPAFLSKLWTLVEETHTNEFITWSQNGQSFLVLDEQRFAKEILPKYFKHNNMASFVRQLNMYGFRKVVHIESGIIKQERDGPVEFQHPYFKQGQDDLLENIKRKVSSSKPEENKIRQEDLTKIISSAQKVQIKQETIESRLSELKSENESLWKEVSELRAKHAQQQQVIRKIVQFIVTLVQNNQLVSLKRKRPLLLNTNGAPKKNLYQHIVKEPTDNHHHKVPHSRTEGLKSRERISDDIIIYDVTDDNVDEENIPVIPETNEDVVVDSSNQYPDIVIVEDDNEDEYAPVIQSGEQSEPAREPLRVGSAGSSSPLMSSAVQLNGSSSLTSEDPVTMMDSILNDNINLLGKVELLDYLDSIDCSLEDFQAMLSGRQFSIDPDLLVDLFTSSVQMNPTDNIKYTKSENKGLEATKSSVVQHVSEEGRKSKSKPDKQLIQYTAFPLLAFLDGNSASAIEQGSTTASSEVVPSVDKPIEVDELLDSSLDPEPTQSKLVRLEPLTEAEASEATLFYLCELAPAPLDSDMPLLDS
UniProt Q92793: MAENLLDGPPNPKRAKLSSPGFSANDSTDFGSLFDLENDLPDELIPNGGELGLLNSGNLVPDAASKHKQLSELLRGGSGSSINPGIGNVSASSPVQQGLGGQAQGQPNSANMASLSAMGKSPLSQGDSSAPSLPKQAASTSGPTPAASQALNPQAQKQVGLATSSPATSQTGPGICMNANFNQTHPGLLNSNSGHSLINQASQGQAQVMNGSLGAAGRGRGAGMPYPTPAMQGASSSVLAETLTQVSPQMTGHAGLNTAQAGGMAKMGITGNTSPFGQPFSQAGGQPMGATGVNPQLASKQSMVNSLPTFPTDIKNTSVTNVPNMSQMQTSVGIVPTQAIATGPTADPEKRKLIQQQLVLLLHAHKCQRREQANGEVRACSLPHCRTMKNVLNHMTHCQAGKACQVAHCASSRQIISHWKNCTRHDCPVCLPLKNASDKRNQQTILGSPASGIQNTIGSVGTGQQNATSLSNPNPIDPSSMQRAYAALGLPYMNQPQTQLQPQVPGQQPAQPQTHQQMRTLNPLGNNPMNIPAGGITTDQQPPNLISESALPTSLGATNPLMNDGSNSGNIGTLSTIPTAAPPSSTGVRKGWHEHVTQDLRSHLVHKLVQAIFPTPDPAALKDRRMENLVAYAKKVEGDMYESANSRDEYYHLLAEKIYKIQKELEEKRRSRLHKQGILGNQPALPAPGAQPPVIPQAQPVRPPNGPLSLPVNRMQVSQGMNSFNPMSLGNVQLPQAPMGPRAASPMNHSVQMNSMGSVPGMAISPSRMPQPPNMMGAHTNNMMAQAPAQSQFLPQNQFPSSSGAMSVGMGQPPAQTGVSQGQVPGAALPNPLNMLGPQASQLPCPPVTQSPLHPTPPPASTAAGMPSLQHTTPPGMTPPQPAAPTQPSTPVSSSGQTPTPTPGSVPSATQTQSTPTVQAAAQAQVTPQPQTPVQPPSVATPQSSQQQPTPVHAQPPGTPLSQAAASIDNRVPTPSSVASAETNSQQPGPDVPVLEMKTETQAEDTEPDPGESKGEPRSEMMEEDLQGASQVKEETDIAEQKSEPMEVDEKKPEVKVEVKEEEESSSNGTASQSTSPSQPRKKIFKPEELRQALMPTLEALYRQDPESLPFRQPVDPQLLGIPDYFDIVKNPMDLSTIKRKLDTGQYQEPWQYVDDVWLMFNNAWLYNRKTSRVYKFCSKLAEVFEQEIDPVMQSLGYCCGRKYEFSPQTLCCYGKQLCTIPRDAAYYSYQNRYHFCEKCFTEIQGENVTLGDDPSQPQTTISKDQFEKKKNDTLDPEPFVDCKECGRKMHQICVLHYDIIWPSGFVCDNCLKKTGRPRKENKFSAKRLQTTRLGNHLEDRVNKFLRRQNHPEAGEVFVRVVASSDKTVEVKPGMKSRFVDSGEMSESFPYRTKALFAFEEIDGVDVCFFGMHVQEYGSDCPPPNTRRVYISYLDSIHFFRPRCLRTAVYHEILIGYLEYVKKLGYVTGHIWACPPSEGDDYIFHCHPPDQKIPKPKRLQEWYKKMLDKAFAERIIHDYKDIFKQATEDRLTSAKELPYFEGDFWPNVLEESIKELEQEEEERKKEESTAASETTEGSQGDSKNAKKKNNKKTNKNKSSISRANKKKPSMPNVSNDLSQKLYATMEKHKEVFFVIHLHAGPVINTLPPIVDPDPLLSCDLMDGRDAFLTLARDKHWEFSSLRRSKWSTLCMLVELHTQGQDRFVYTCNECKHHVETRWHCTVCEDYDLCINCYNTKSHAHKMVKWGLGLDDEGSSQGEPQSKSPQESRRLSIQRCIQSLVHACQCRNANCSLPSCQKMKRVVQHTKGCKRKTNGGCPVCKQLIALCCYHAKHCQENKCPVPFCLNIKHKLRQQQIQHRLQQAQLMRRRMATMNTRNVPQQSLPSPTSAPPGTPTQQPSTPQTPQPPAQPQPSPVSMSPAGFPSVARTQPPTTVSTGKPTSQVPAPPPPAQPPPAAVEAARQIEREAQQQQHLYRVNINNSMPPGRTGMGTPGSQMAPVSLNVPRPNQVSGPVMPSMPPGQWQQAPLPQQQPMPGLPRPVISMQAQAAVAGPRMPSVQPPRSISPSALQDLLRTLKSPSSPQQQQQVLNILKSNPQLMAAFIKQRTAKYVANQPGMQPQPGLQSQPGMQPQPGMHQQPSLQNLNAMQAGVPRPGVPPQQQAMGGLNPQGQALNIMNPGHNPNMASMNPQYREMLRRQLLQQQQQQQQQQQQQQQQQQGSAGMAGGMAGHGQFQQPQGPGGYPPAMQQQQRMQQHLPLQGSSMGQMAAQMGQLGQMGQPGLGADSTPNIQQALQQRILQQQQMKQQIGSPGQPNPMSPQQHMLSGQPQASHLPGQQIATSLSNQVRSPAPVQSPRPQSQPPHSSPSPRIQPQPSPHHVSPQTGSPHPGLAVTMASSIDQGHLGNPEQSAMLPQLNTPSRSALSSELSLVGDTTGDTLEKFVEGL
UniProt Q09472: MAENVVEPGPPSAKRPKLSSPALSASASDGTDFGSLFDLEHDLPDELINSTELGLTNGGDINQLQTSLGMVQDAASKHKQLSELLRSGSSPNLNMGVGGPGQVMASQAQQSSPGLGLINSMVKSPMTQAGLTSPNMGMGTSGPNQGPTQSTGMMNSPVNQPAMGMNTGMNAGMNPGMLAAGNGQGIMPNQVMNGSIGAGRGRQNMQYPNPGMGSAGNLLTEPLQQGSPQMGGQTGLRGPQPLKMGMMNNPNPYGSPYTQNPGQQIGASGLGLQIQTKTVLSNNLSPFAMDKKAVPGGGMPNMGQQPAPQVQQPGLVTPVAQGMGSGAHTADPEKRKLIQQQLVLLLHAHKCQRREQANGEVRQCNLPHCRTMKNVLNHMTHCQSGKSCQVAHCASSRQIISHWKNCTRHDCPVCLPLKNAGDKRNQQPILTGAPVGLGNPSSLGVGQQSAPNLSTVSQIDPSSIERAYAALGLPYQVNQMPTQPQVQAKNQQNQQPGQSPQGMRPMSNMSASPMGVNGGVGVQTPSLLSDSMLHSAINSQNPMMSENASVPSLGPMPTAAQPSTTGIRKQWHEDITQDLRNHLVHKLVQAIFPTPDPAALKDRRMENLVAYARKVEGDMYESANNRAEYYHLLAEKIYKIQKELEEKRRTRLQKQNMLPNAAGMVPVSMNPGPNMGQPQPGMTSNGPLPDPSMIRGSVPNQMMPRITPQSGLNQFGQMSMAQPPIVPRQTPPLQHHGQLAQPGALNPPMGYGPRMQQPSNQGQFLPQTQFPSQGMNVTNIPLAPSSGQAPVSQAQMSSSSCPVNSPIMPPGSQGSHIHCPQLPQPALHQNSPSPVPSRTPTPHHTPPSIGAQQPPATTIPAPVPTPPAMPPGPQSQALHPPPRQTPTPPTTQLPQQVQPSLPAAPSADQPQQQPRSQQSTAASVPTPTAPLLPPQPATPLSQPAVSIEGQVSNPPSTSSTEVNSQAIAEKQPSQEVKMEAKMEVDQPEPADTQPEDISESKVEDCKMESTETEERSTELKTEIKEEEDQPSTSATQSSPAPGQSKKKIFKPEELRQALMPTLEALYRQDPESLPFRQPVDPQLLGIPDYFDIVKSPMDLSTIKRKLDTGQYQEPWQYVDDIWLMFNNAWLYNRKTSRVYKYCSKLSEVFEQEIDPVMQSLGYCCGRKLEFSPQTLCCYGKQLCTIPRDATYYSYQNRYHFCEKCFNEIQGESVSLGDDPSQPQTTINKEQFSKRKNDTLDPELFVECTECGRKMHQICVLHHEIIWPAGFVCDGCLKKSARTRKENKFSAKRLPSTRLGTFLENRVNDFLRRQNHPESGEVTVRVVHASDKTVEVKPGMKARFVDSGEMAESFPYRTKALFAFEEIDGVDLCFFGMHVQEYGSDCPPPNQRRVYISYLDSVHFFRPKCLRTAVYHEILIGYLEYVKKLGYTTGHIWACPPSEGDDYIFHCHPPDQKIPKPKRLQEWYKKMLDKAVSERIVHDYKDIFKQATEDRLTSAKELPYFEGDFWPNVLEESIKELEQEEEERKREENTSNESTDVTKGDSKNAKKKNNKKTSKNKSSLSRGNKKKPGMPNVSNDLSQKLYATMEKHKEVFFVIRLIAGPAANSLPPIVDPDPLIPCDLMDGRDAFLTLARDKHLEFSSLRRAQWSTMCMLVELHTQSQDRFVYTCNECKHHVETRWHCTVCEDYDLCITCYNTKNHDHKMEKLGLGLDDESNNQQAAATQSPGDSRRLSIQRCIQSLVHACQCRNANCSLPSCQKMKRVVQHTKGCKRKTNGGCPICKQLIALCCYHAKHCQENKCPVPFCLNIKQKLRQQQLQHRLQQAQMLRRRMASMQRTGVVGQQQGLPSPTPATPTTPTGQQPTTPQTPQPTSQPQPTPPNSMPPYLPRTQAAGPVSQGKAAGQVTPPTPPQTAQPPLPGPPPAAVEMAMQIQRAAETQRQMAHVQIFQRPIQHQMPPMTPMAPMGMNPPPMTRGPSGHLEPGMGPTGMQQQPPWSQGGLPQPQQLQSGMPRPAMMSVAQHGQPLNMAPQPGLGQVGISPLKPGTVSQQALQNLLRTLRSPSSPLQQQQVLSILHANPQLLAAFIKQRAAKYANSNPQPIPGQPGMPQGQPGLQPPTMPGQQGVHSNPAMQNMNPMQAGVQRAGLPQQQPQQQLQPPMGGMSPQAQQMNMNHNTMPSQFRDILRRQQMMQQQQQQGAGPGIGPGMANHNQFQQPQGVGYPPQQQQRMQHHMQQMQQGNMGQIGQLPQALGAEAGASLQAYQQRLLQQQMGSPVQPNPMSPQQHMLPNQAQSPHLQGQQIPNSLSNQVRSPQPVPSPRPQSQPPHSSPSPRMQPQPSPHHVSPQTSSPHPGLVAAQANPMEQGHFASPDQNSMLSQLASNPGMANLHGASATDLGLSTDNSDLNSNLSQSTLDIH

Assays:
human HSF2-YFP (human) [1] = biological target: human HSF2-YFP (human) (UniProt Q03933); test: co-IP; HEK 293 cells transfected with YFP-tagged hHSF2 and HA-tagged CBP or EP300; HSF2 precipitated with GFP-Trap, Trap-A control beads; CBP or EP300 detected with anti-HA
human HSF2-YFP (human) [2] = biological target: human HSF2-YFP (human) (UniProt Q03933); test: fluorescence three-hybrid assay (F3H); BHK cells with a stably integrated Lac-operator array, transfected with GBP-LacI, YFP-HSF2 and CBP-HA or EP300-HA; co-recruitment at the LacO array seen by confocal microscopy (anti-HA or anti-CBP staining)
[3] = biological target: HSF2 (heat-shock factor 2), endogenous mouse (mouse (endogenous in embryonic cortex and N2A)) (UniProt P38533); test: co-IP; endogenous proteins; N2A cells lysed in Lysis buffer A; IP with anti-HSF2; immunoblot
[4] = biological target: HSF2 (heat-shock factor 2), endogenous mouse (mouse (endogenous in embryonic cortex and N2A)) (UniProt P38533); test: co-IP; endogenous proteins; mouse embryonic cortex (E13, E15) lysed in Lysis buffer A (25 mM Hepes pH 8, 100 mM NaCl, 5 mM EDTA, Triton X-100 0.5%); IP overnight with anti-HSF2, non-relevant IgG as negative control; immunoblot for CBP and EP300
[5] = biological target: biotinylated recombinant full-length HSF2 (recHSF2) (UniProt Q03933); test: BLI; Octet Red; biotinylated recombinant HSF2 immobilised at 100 nM on streptavidin biosensors in PBS; analytes diluted in PBS at 100 nM, association 600 s; Kd with a 1:1 stoichiometry model, global fit with Rmax unlinked by sensor; both purified
[6] = biological target: HSF2, endogenous human (SH-SY5Y) (human (endogenous in SH-SY5Y)) (UniProt Q03933); test: co-IP; endogenous proteins; SH-SY5Y cells lysed in Lysis buffer A; IP with anti-HSF2; immunoblot
CBP KIX-GST, wild type = CBP KIX-GST, wild type (UniProt P45481); test: co-IP; in vitro interaction of wild-type or mutated CBP KIX-GST and SNAP-HSF2 recombinant proteins produced in bacteria and reticulocyte lysates; IP GST; immunoblot

Substance: CBP-HA (from UniProt Q92793 1-2442) (enzyme)
- binding (human HSF2-YFP (human) [1]): binds
- binding (human HSF2-YFP (human) [2]): binds

Substance: EP300, endogenous human (SH-SY5Y) (from UniProt Q09472 1-2414) (enzyme)
- binding [6]: binds

Substance: SNAP-HSF2 recombinant protein (from UniProt Q03933 1-536)
- binding (CBP KIX-GST, wild type): binds

Substance: CBP HAT domain (1322-1700), 6 His-tagged (from UniProt P45481 1322-1700) (domain or fragment)
- binding [5]: no binding (tested: 100 nM)

Substance: CBP, endogenous human (SH-SY5Y) (from UniProt Q92793 1-2442) (enzyme)
- binding [6]: binds

Results, then the substance that gave them:

- binding [3]: binds
- binding [4]: binds
Substance: CBP (CREB-binding protein), endogenous mouse (from UniProt P45481 1-2441) (enzyme)

- binding [5]: no binding (tested: 100 nM)
Substance: CBP Bromodomain (1096-1205), 6 His-tagged (from UniProt P45481 1096-1205) (domain or fragment)

- binding (human HSF2-YFP (human) [1]): binds
- binding (human HSF2-YFP (human) [2]): binds
Substance: EP300-HA (from UniProt Q09472 1-2414) (enzyme)

- binding [5]: binds
Substance: CBP PHD domain (1280-1321), 6 His-tagged (from UniProt P45481 1280-1321) (domain or fragment)

- binding [5]: no binding (tested: 100 nM)
Substance: CBP RING domain (1205-1279), 6 His-tagged (from UniProt P45481 1205-1279) (domain or fragment)
